# Test results published in PubChem BioAssay AID1508642 (National Center for Advancing Translational Sciences (NCATS), 2021).
# The whole screen tested about 43,000 compounds, of which about 200 (0.47%) were called active. About 12% were inconclusive and are not listed. Calls follow the shape of the dose curve; as a rule, active = well fitted cell-killing curve with a large enough effect; inconclusive = small, poorly fitted or top-dose-only effect, or effect the other way; inactive = flat fitted curve, though single readings scatter. This is one part of the list.
# Experiment: Cell viability qHTS assay in S16 Pmp22-F2sN cells; also: nearly all actives have a fitted effect of over 65% in size
# Settings: S16 Pmp22-F2sN Schwann cells (luciferase reporters placed in the Pmp22 gene) viability, CellTiter-Glo, 24 h; series mostly up to 57.5 µM; activity change, negative = cytotoxicity: at the top concentration
# Description: Assay Provider: Jim Inglese Ph.D. National Center for Advancing Translational Science, National Institutes of Health, Rockville, MD CMT is a heterogeneous group of neurological disorders that affect approximately 1 in 2,500 people. In particular, the most common form of CMT, CMT1A is genetically linked to the duplication of the PMP22 gene which leads to Schwann cell overexpression, thus manifesting itself as a typical case of dose-sensitive diseases. To identify small molecule compounds that can mediate the expression of PMP22 we developed a phenotypic assay screening strategy by utilizing genome editing techniques to construct Schwann cell lines containing novel reporter technology to monitor the transcriptional or translational regulation of PMP22. For high sensitivity we use a bioluminescent reporter system embedded in the 3' UTR of the PMP22 gene (S16(c9) Pmp22-F2sN) to identify compounds that inhibit gene expression. […] We can further discriminate the effect of all transcriptionally active molecules on PMP22 translation or stability with an assay that incorporates a short NLuc peptide (HiBiT) at the C-terminus of expressed PMP22 (S16(f8) PMP22-HiBiT) allowing alpha complementation and luminescence detection of membrane-associated PMP22 protein. These assays were screened against the NCATS Sytravon Library Collection. Miniaturization of these assays to 1536-well plate format for quantitative high throughput screening (qHTS) yielded rich data sets immediately from the qHTS assay (S16(c9) Pmp22-F2sN), when compared with data from a cell viability assay (Cell TiterGlo) to identify compounds that decreased the output signals through cellular toxicity to streamline the selection process of actives for subsequent characterization using the HiBiT assay (S16(f8) PMP22-HiBiT).
# Cell viability assay in S16 Pmp22-F2sN cells PROTOCOL TABLE (format as described by Inglese J, Shamu CE and Guy RK. 2007) SEQUENCE No. (e.g., 1, 2, 3, etc.); […] (e.g., Cells, Incubation, Reagent, etc.); VALUE and DESCRIPTION. 1. Cells. Add 500-1,000 cells in 4 uL in growth media (DMEM High Glucose, No Phenol Red media + 10% heat-inactivated FBS + 1% Pen/Strep supplemented media) per well into Greiner 1536-well white/solid bottom high base, TC-treated plates. 2. Compounds. Library compounds and controls added at 23nL per well, transferred by Pin Tool. 3. Incubation. Incubate plates at 37C, 5% CO2, 95% RH for 24 h. 4. Reagent. Add 3uL CellTiter-Glo per well of Greiner 1536-well plates. 5. Incubation. Incubate plates at room temperature for 15 min., protect from light. 6. Detector. FLuc luminescence measured using CCD-based camera (Viewlux). NOTES (numbers refer to Sequence numbers above; values are from representative experiments) 6. Luminescence Read: Clear filter; Exposure = 1 sec, Gain = High, Speed = Slow, Binning = 2X REFERENCES: 1. Inglese J, Shamu CE and Guy RK, Reporting data from high throughput screening of small molecule libraries, Nature Chemical Biology, 2007, 3(8): 438-441. doi.org/10.1038/nchembio0807-438 2. Yasgar A, Shinn P, Jadhav A, Auld DS, Michael S, Zheng W, Austin CP, Inglese J and Simeonov A, Compound Management for Quantitative High-Throughput Screening. J. Assoc. Lab. Auto., 2008, 13: 79-89. doi: 10.1016/j.jala.2007.12.004
# % is scaled to controls: 0 for no effect and ±100 for the full control effect.
row,Structure (SMILES),"activity change, negative = cytotoxicity"
1,CC(C)c1ccc(NC(=O)CC2NCCNC2=O)cc1 (stereo not drawn),inactive: 3.34%
2,Cc1ccc(S(=O)(=O)N2CCCc3cc(NS(=O)(=O)c4cc(F)ccc4F)ccc32)cc1,inactive: -0.103%
3,O=C(CCCn1c(=O)c2ccccc2n(Cc2cccc(Cl)c2)c1=O)NCCc1ccc(Cl)cc1,inactive: -25.7%
4,COc1cccc(N2CCN(C(=O)C3Cc4ccccc4N3C(C)=O)CC2)c1 (stereo not drawn),inactive: 1.59%
5,CCCN(CCC)CCCNC(=O)c1cn(CC)c2ccc(S(=O)(=O)N(C)C3CCCCC3)cc2c1=O,inactive: 0.376%
6,CCc1ccc(OCc2cc(=O)n3c4c(sc3n2)CCCC4)cc1,inactive: -10.5%
7,Cc1ccc(S(=O)(=O)c2nnn3c2nc(NC(C)C)c2sccc23)cc1,inactive: -7.71%
8,CCNc1ncnc2c1nnn2C,inactive: -4.04%
9,CCOC(=O)c1c(C)[nH]c(CCC(=O)Nc2c(C)cccc2CC)c1C,inactive: 5.71%
10,Cc1cccc(-c2nc3ccccc3n2Cc2ccccc2)c1,inactive: 12.2%
11,CCC(=O)Nc1ccccc1-c1nc2ccccc2n(CC(=O)c2ccc(Cl)cc2)c1=O,inactive: 6.57%
12,CCOC(=O)N1CCc2c(sc(NCc3cccc(F)c3)c2C(=O)Nc2ccc(OC)cc2OC)C1,inactive: -23.1%
13,CCOC(=O)C1CCCN(C(=O)C2CCN(S(=O)(=O)c3c(C)noc3/C=C/c3ccccc3F)CC2)C1 (stereo not drawn),inactive: -2%
14,Cc1ccccc1NC(=O)Nc1nnc(N2CCCCCC2)s1,inactive: -2.59%
15,COc1ccccc1NC(=O)CCn1nc(-c2ccccc2OC)c2c(C)cc(C)nc21,inactive: -6.6%
16,CCC(=O)N1CCc2cc(Br)cc(S(=O)(=O)CCC(=O)N3CCN(c4ccc(F)cc4)CC3)c21,inactive: -19.2%
17,Cc1cc(C)c(C)c(OCC(=O)Nc2ccc(S(=O)(=O)Nc3nc(C)cc(C)n3)cc2)c1,inactive: 6.92%
18,COc1ccc(CC(=O)NCCc2sc3nc(-c4ccc(OC)cc4)nn3c2C)cc1,inactive: -14.4%
19,COc1ccc2c(c1)-c1nc(NC(=O)c3ccc(OC)c(Br)c3)sc1CC2,inactive: -18.7%
20,Cc1cccc(-c2noc(CN(C3CCCCC3)S(=O)(=O)c3ccc(F)cc3)n2)c1,inactive: 2.31%
21,COc1ccc(CNC(=O)CN(c2ccc(C(C)C)cc2)S(=O)(=O)c2c(C)nn(C)c2C)cc1,inactive: 0.611%
22,COc1ccc(NC(=O)CSc2nc3ccccc3nc2N2CCC(C)CC2)cc1,inactive: 6.76%
23,COc1cc(/C=C/c2nc(C#N)c(N3CCCCC3)o2)cc(OC)c1OC,inactive: -7%
24,CC1=C(C(=O)NCc2cccc(Br)c2)C2(CCCCC2)OC1=O,inactive: 1.2%

row,Structure (SMILES),"activity change, negative = cytotoxicity"
1,CCCCOC(=O)/C(C#N)=C/c1ccc(-c2cccc(C(F)(F)F)c2)o1,inactive: 7.89%
2,CCOc1ccc(-c2nonc2NC(=O)c2ccco2)cc1,inactive: 7.31%
3,CCOc1ccc(NC(=O)CSc2nc3c(oc4ccccc43)c(=O)n2-c2cc(C)cc(C)c2)cc1,inactive: 13.9%
4,Cc1ccc(C(=O)Nc2c(-c3ccccc3)nc3ccccn23)cc1,inactive: -10.1%
5,Cc1ccc(C2c3[nH]c4ccccc4c3CCN2C(=O)c2ccccc2Br)cc1 (stereo not drawn),inactive: 11%
6,CCCN(CCC)C(=O)Cn1c(=O)n(-c2ccc(C)c(C)c2)c(=O)c2c3c(sc21)CCCCC3,inactive: -4.57%
7,CC1CCC(NC(=O)CCc2cn(Cc3ccccc3Cl)c3ccccc23)CC1 (stereo not drawn),inactive: -11.4%
8,Cc1nn(-c2ccc(F)cc2)c(-n2cccc2)c1C(=O)N1CCN(c2ccccc2)CC1,inactive: 8.16%
9,Cc1cc2nn(-c3ccccc3)nc2cc1NC(=O)COc1ccc(Cl)cc1,inactive: -3.17%
10,CCOc1ccc(Cn2nnc(C(=O)Nc3cccc(SC)c3)c2N)cc1,inactive: -0.235%
11,Cc1ccc(NC(=O)CSc2nnc(-c3cc4occc4n3C)n2-c2ccccc2C)c(Cl)c1,inactive: 9.85%
12,Cc1ccc(C)c(Cn2c3ccccc3c3cnn(CC(=O)NC4CCC(C)CC4)c(=O)c32)c1 (stereo not drawn),inactive: 6.7%
13,O=C(NCCc1ccccc1)C1CCN(c2ncnc3c2nc2n3CCCCC2)CC1,inactive: 7.7%
14,COc1ccc(NC(=O)CSC2=Nc3ccccc3C3=NC(CCC(=O)NCc4cccs4)C(=O)N23)cc1 (stereo not drawn),inactive: -2.71%
15,Cc1ncc(CO)c2c1Oc1nc(-c3ccc(F)cc3)nc(SCC(=O)N3CCCCC3)c1C2,inactive: -13.8%
16,Cc1ccc(CN2C(=O)N(c3ccc(F)cc3)C(=O)C2CC(=O)Nc2ccc(Cl)cc2)cc1 (stereo not drawn),inactive: 3.17%
17,COc1ccc(CCCc2nnc(SCC(=O)Nc3cc(C)ccc3C)o2)cc1,inactive: -2.3%
18,COC(=O)c1ccccc1NC(=O)c1ccc(COc2cc(C)cc(C)c2)o1,inactive: 15.3%
19,CC(=O)Nc1ccc(-n2c(CCC(=O)O)ccc2-c2ccc(Br)cc2)cc1,inactive: 1.48%
20,COc1ccc(CNC(=O)Cc2c(C)c3c(cc(C)c4c(C)coc43)oc2=O)cc1OC,inactive: 19.8%
21,COc1ccc(Cl)cc1NC(=O)Cn1c(=O)n(Cc2cccs2)c(=O)c2cccnc21,inactive: -13.5%
22,CCOC(=O)c1cc(-c2ccc(C)cc2)n(CC(=O)Nc2ccccc2F)c1C,inactive: 6.52%
23,Cc1nn(CC(=O)NCc2ccc(N(C)C)cc2)c(=O)c2c(C)n(-c3ccc(Cl)cc3)nc12,inactive: -22.7%
24,CCOc1ccc(NC(=O)CCn2c(=O)c3cccn3c3cccnc32)cc1,inactive: 18%
